# Several values for one entry are separate records, joined by “and”; a condition that tells them apart may be missing. Identical values can stand only once. The whole screen tested about 150,000 compounds, of which about 180 (0.12%) were called active. Inconclusive means that the source gave no clear call. Such entries were picked first, then a sample of the others. Calls come from the whole dose curve; as a rule, active = well fitted cell-killing curve with a large enough effect; inconclusive = small, poorly fitted or top-dose-only effect, or effect the other way; inactive = flat fitted curve, though single readings scatter. A potency beside an inconclusive call is a rough fit, not a confirmed value.
# Experiment: GF-AFC viability counterscreen for inhibitors of alpha-synuclein gene (SNCA) expression; note: nearly all actives have a fitted effect of over 30% in size;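 for activity change, negative = cytotoxicity: 0% = DMSO-treated cells and -100% = medium-only wells without cells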
# Details: HEK-293-SNCA-luc viability, GF-AFC fluorescence, 24 h; activity change, negative = cytotoxicity: at 57.1 µM (top of the series) unless noted
# How it was run: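 HEK-293-SNCA-luc cells (1500/well) plated 24 h, then exposed 24 h to a dilution series; GF-AFC added 30 min at 37C, fluorescence 405/540 nm; normalised to medium-only and DMSO wells, Hill fit.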
# Potency is the fitted concentration of half-maximal effect; tags give direction and shape of the fitted curve.
Structure (SMILES),Potency,"activity change, negative = cytotoxicity"
O=C1NC(=NC2CCCCC2)C2(CCCN(Cc3cccnc3)C2)N1c1cc(F)cc(F)c1 (stereo not given),inactive,–
NC(=O)C1CCCc2c1[nH]c1ccc(Cl)cc21 (stereo not given),"inconclusive: 3.83 µM [cytotoxic, full curve]",–
Cc1cccc(CNc2ccnc(-c3cccc(NS(C)(=O)=O)c3)n2)c1,"inconclusive: 39.8 µM [cytotoxic, single point]",–
Cc1cccc(C)c1-n1c(=O)c2cnc(Nc3ccc(N4CCN(C)CC4)cc3)nc2n2c3ccccc3nc12,"inconclusive: 10.6 µM [cytotoxic, partial curve, poor fit]",–
O=C(NC1CCCN(c2cc(-c3ccc(F)cc3)[nH]n2)C1)c1cccc(Cl)c1 (stereo not given),"inconclusive: 20 µM [cytotoxic, partial curve, poor fit]",–
CC(NC(=O)c1cc2ccccc2o1)c1ccccc1 (stereo not given),"inconclusive: 0.891 µM [rising, full curve, poor fit]",–
CCN1c2cc(C(=O)Nc3ccc(Br)c(C)c3)ccc2C(=O)N2CCCC21 (stereo not given),–,inactive: -2.94% [at 12.5 µM]
CC(C)Oc1cccc2c1c(NC(=O)CN1CCCC1=O)nn2-c1cccc(F)c1,"inconclusive: 22.4 µM [cytotoxic, partial curve, poor fit]",–
Cc1cccc(NC(=O)CSc2nc3ccccc3c3nc(CCc4c(C)n[nH]c4C)nn23)c1,"inconclusive: 10 µM [cytotoxic, partial curve, poor fit]",–
CC1=C[C@@H](CN)[C@H](C(C)C)C[C@H]1Cc1nc2ccc(Cl)cc2[nH]1,"inconclusive: 31.6 µM [cytotoxic, single point]",–
O=C(NCCc1cccs1)c1cccc2c1CCN2C(=O)Nc1ccccc1,"inconclusive: 22.4 µM [cytotoxic, single point]",–
Cc1nn2c(c1-c1ccccc1Oc1ccccc1)N(Cc1ccc(C(=O)O)cc1)CCC2,"inconclusive: 10 µM [cytotoxic, full curve]",–
Cc1ccc(S(=O)(=O)NCCc2csc3nc(-c4ccccc4F)nn23)cc1C,"inconclusive: 7.94 µM [cytotoxic, partial curve, poor fit]",–
O=C1NC(=NC2CCCCC2)C2(CCN(Cc3ccc(F)cc3)C2)N1c1cccnc1 (stereo not given),inactive,–
Cc1cnc(C2CCOCC2)n1CCNC(=O)C1(c2ccccc2)CCCC1,"inconclusive: 4.47 µM [cytotoxic, single point]",–
CC(=O)[C@]1(O)Cc2c(O)c3c(c(O)c2[C@@H](O[C@H]2C[C@H](N)[C@@H](O)[C@H](C)O2)C1)C(=O)c1ccccc1C3=O,"inconclusive: 4.29 µM [cytotoxic, partial curve]",–
COc1ccc2c(c1)c1c(c(=O)n(-c3cccc(C)c3)c(=O)n1CC(=O)N1CCCC1)n2C,"inconclusive: 1 µM [cytotoxic, full curve, poor fit]",–
O=[S+]([O-])(NC1CCN(Cc2ccc(-c3ccsc3)cc2)C1)c1cccs1 (stereo not given),inactive,–
COc1cc(-c2noc(C3CC(=O)N(c4cc(C)ccc4C)C3)n2)cc(OC)c1OC (stereo not given),"inconclusive: 1.41 µM [cytotoxic, full curve, poor fit]",–
COc1cccc(NC(=O)c2nnn(Cc3ccc(OC)c(Br)c3)c2N)c1,inactive,–

Structure (SMILES),Potency,"activity change, negative = cytotoxicity"
CCS(=O)(=O)c1cccc(-c2cc(C(=O)NC3CCN(C)CC3)c(C)c3[nH]c4ncc(C)cc4c23)c1,"inconclusive: 4.29 µM [cytotoxic, full curve] and inconclusive: 1.65 µM [cytotoxic, full curve, poor fit]",–
Clc1ccc(C2(c3ccc(-c4cn[nH]c4)cc3)CCNCC2)cc1,"inconclusive: 26.7 µM [cytotoxic, partial curve, poor fit]",–
CCOc1ccc(CCNC(=O)c2c(C)oc3ncn(C)c(=O)c23)cc1,"inconclusive: 7.94 µM [cytotoxic, partial curve, poor fit]",–
CC(C)c1nc(N2CCCC2)ncc1C(=O)O,"inconclusive: 14.1 µM [rising, partial curve, poor fit]",–
COc1ccc(-c2nc(C3CN(C(=O)NCc4ccccc4)C3)no2)cc1,"inconclusive: 10 µM [cytotoxic, partial curve, poor fit]",–
CC1(COCC2CC2)COc2ccc(C(=O)Nc3ccc4[nH]ccc4c3)cc2N1 (stereo not given),"inconclusive: 5.62 µM [cytotoxic, full curve, poor fit]",–
COc1ccc(CNC(=O)N2CCCC(CN3CCCC3)CC2)cc1 (stereo not given),inactive,–
CS(=O)(=O)Nc1ccc(C2(C(=O)NCc3ccc4c(c3)OCO4)CCCCC2)cc1,"inconclusive: 28.2 µM [cytotoxic, single point]",–
COc1ccc(C(=O)N2CCC3(CC2)CC(c2ccccc2)=NO3)cc1,"inconclusive: 28.2 µM [cytotoxic, partial curve, poor fit]",–
C=C(C)C(=O)OC1[C@@H]2C(=C)C(=O)O[C@@H]2C[C@@H](C)[C@@H]2C=CC(=O)[C@@]12C (stereo not given in full),–,inconclusive: -42.4% [cytotoxic]
O=C(NCc1ccccc1)c1nc2sccn2c1-c1cccnc1,"inconclusive: 3.16 µM [cytotoxic, partial curve, poor fit]",–
Cc1ccc(NC(=O)c2cn3cc(-c4ccccc4)sc3n2)cc1,"inconclusive: 4.47 µM [rising, full curve, poor fit]",–
CC1(C)CN(C(=O)c2ccc(-c3cccc4nc(NC(=O)C5CC5)nn34)cc2)C1,"inconclusive: 4.74 µM [cytotoxic, single point]",–
Cn1cc(C(=O)Nc2ccc(C#N)cc2)c2ccccc2c1=O,"inconclusive: 39.8 µM [rising, single point]",–
Cc1nn(-c2ccccc2)c(Oc2ccccc2F)c1CCC(=O)NCC(C)C,"inconclusive: 25.1 µM [cytotoxic, partial curve, poor fit]",–
CNC(=O)C1CCN(Cc2ccccc2-c2ccccc2F)CC1,inactive,–
O=S(=O)(c1cccnc1)N1CCC(N2CC(OCC3CC3)C23CCOCC3)CC1 (stereo not given),"inconclusive: 39.8 µM [cytotoxic, single point]",–
COc1ccc(NC(=O)CSc2nc(-c3ccccc3)[nH]c2-c2ccccc2)cc1OC,"inconclusive: 17.8 µM [cytotoxic, partial curve, poor fit]",–
CN(C(=O)C1CCN(c2ncnc3c2nc2n3CCCCC2)CC1)c1ccccc1F,"inconclusive: 20 µM [cytotoxic, single point]",–
COc1ccc(OCc2cc(C(=O)N3C[C@H]4CC[C@H]3C4)n[nH]2)c(Cl)c1,inactive,–

Structure (SMILES),Potency,"activity change, negative = cytotoxicity"
O=C(NCCCN1CCCCC1)c1[nH]c2ccccc2c1Sc1ccc(Cl)cc1,"inconclusive: 22.4 µM [cytotoxic, single point]",–
O=C(CCS(=O)(=O)c1nc(-c2cccs2)cc(C(F)(F)F)n1)Nc1ccc(F)c(Cl)c1,"inconclusive: 31.6 µM [cytotoxic, single point]",–
CCc1cccc2c(C(CC(=O)NCCc3ccccc3)c3cccc4c3OCO4)c[nH]c12 (stereo not given),"inconclusive: 22.4 µM [cytotoxic, single point]",–
COc1cccc(CNC(=O)[C@@H]2C[C@@H](O)CN2C2CCN(C(=O)c3ccccn3)CC2)c1,inactive,–
O=[N+]([O-])c1ccc(-[n+]2nc(-c3ccccc3)nn2-c2ccc(I)cc2)cc1,"inconclusive: 9.47 µM [cytotoxic, partial curve, poor fit]",–
CC(C)c1nc2c(c(-c3ccc(O)cc3)n1)CCN(Cc1ccccc1C(F)(F)F)CC2,"inconclusive: 39.8 µM [cytotoxic, single point]",–
C(Cc1noc(C2CNC2)n1)OCC1CC1,"inconclusive: 20 µM [cytotoxic, single point]",–
O=S(=O)(c1ccc(F)cc1)N(Cc1nc(-c2ccccc2)no1)C1CCCCC1,inactive,–
Cc1cccc(CSc2nc3cccnc3n2Cc2ccc(C(=O)NCc3ccco3)cc2)c1,"inconclusive: 39.8 µM [cytotoxic, single point]",–
COc1ccc(CN(Cc2ccco2)c2cnc(S(C)(=O)=O)nc2C(=O)Nc2ccc(C)c(C)c2)cc1,inactive,–
Cc1cccc(C)c1OCCn1c(C2CC(=O)N(Cc3ccc(F)cc3)C2)nc2ccccc21 (stereo not given),"inconclusive: 35.5 µM [cytotoxic, single point]",–
COc1cccc(-c2cc3c(=O)n(CCNC(=O)COc4ccccc4)ccn3n2)c1,inactive,–
CCCCN(CC)CCNC(=O)C1CCN(c2nnc(C)c3c(C)n(-c4ccc(C)cc4)nc23)CC1,"inconclusive: 39.8 µM [cytotoxic, single point]",–
CN1c2cc(C(=O)NC3CCCCCC3)ccc2C(=O)N2CCCCC21 (stereo not given),"inconclusive: 6.31 µM [rising, single point]",–
O=C(O)CSc1nnc(-c2ccc(O)cc2)o1,"inconclusive: 31.6 µM [rising, single point]",–
O=C(Nc1cccc(C(F)(F)F)c1)c1cnc2c(c1)N(C(=O)Cc1cccc(C(F)(F)F)c1)CCC2,"inconclusive: 25.1 µM [cytotoxic, single point]",–
Cc1ccc(S(=O)(=O)N(CC(=O)Nc2ccc3c(c2)OCO3)c2ccc(C)c(Cl)c2)cc1,–,inconclusive: 28.2%
O=C(Nc1ccc(F)cc1)C1CCc2nnc(C3CC3)n21 (stereo not given),–,inactive: -18.4% [at 12.5 µM]
CCCCc1nc2ccccc2n1CC(=O)N(COCC)c1c(C)cccc1CC,"inconclusive: 17.8 µM [cytotoxic, partial curve, poor fit]",–
O=C(NC1CCCc2c1[nH]c1c(Cl)cccc21)c1ccncc1 (stereo not given),inactive,–
